Values marked as one replicate rest on one cluster of the flow cell; about a third of the high ones do not repeat.
Each sequence was assayed on ATP (assay: switch fluorescence ratio, 500 uM ATP over buffer (Cy3 cluster intensity, sum of 5 cycles each) (fold (ratio)); higher = stronger signal-on switching upon ATP binding; sequences stand for … in TCGTCGGCAGCGTCAGATGTGTATAAGAGACAGTTTTTTTTTTTTTTTTTTTTTTTTT…TC). Settings: aptamer strand: ATP DNA aptamer (quencher-CACCTGGGGGAGTATTGCGGAGGAAGG + anchor), 100 nM annealed; ATP concentration: 500 uM; one replicate.
In short: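 Five buffer/ATP imaging cycles were run on Cy3-labelled switching-strand clusters on a modified Illumina MiSeq flow-cell, with NaOH stripping and re-annealing between cycles. In each cycle, clusters annealed to 100 nM quencher-labelled ATP aptamer were imaged in selection buffer, then after 15 min with 500 uM ATP at 22 °C. Per cluster, the fluorescence ratio is summed target-cycle over summed buffer-cycle Cy3 intensity, averaged per switch-domain sequence. Only clusters within 100-1000 RFU were kept.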
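Note: ATP exposure 15 min at 22 °C before imaging.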

| Sequence | switch fluorescence ratio |
| --- | --- |
| ATACATATCT | 1 |
| ATACATCGAC | 1.09 |
| ATACCAGGCT | 1.05 |
| ATACCATGC | 1 |
| ATACCTGGCG | 1.04 |
| ATACCTTGA | 0.988 |
| ATACGCGGAC | 3 |
| ATACGTCTCT | 1.03 |
| ATACGTGACC | 1.43 |
| ATACTAAGC | 1.03 |
| ATACTATTTG | 1 |
| ATACTCACGT | 1.26 |
| ATACTCGCAT | 1.29 |
| ATACTCTGGT | 1.01 |
| ATACTGCCCA | 1.3 |
| ATACTTAACT | 1.14 |
| ATACTTT | 1.01 |
| ATACTTTGG | 1.03 |
| ATAGAACCAT | 1.03 |
| ATAGAAGTCT | 0.998 |
| ATAGACGCCG | 1.09 |
| ATAGACTAGG | 1.02 |
| ATAGAGAGTT | 0.974 |
| ATAGAGCAAG | 1.1 |
| ATAGAGCCCA | 0.977 |

| Sequence | switch fluorescence ratio |
| --- | --- |
| ATAGAGGACT | 1.01 |
| ATAGAGTTGA | 1.02 |
| ATAGAGTTGC | 0.974 |
| ATAGATGTAG | 1.03 |
| ATAGCATACA | 1.11 |
| ATAGCCCACT | 1.04 |
| ATAGCCGGGA | 1.05 |
| ATAGCGAATG | 0.996 |
| ATAGCGCGTC | 1.02 |
| ATAGCTCATG | 0.973 |
| ATAGGAAAGA | 1.02 |
| ATAGGAATAT | 0.996 |
| ATAGGACTGC | 1.07 |
| ATAGGAGGC | 0.944 |
| ATAGGGTAC | 1.02 |
| ATAGGGTCAG | 1 |
| ATAGGTTTCT | 1.06 |
| ATAGTATACT | 1.02 |
| ATAGTCATG | 0.976 |
| ATAGTCCGGC | 1.08 |
| ATAGTGAATG | 1.02 |
| ATAGTGAGGC | 1.04 |
| ATAGTGGCCC | 1.03 |
| ATAGTGTCAT | 0.988 |
| ATAGTGTGAT | 0.961 |

| Sequence | switch fluorescence ratio |
| --- | --- |
| ATAGTTATCG | 1.01 |
| ATAGTTCTGC | 1.12 |
| ATATAAAGGT | 0.967 |
| ATATAAGTA | 0.925 |
| ATATAATTCG | 0.98 |
| ATATACAGTT | 1.04 |
| ATATACGTG | 1.06 |
| ATATATAGGA | 0.981 |
| ATATATATAA | 1.01 |
| ATATATTAG | 1.01 |
| ATATCATTAG | 0.993 |
| ATATCGGTCC | 0.982 |
| ATATCTACGC | 1.13 |
| ATATCTGCGG | 1.03 |
| ATATGAGGGT | 0.959 |
| ATATGCCAGA | 0.977 |
| ATATGCTTTA | 1.01 |
| ATATGGGCC | 1.01 |
| ATATGGGTAA | 0.982 |
| ATATGGGTGT | 1.02 |
| ATATGGTAGA | 1.04 |
| ATATTAGGCG | 1.04 |
| ATATTAGTAC | 1.02 |
| ATATTCCCGT | 1.05 |
| ATATTCTGTT | 0.921 |

| Sequence | switch fluorescence ratio |
| --- | --- |
| ATATTCTTCA | 1.08 |
| ATATTGGTCC | 0.991 |
| ATATTGTTTC | 1.01 |
| ATATTTCTGC | 1.07 |
| ATATTTGCAT | 0.973 |
| ATATTTTCGG | 1.01 |
| ATCAAACTGT | 1.06 |
| ATCAAAGCAA | 2.38 |
| ATCAACGGCG | 0.945 |
| ATCAACTGGT | 0.983 |
| ATCAAGCCA | 1.05 |
| ATCAAGTACG | 1.22 |
| ATCAAGTCCA | 0.987 |
| ATCAATGGTA | 0.961 |
| ATCAATGTCC | 1.03 |
| ATCAATTTCG | 1.08 |
| ATCACAAGGT | 0.945 |
| ATCACGCCCT | 1.12 |
| ATCAGCCGAG | 1.02 |
| ATCAGGCCTT | 0.994 |
| ATCAGTCGCC | 0.995 |
| ATCAGTGCCT | 1.03 |
| ATCAGTTCTG | 0.983 |
| ATCATAGTAG | 1 |
| ATCATAGTCT | 0.965 |
